Screen size: about 71,000 compounds; about 1,800 (2.5%) were called active. Inconclusive results, whose numbers are uncertain, are shown with a selection of clear calls. Calls come from the whole dose curve; as a rule, active = well fitted activation curve with a large enough effect in the signal ratio, with a control signal flat (not every such curve was filed as active); inconclusive = small, poorly fitted or top-dose-only effect, or effect the other way, or a change in a side signal; inactive = flat fitted curve, though single readings scatter; the % refers to the signal ratio. Potencies of inconclusive entries are doubtful fits and often do not repeat.
Experiment: Cell signaling CRE-BLA (Fsk stim); for activity change, negative = inhibition: % of control where 0% means no effect
Settings: CHO CRE-bla reporter (cAMP response element driving beta-lactamase), forskolin EC10, beta-lactamase ratio; activity change, negative = inhibition: at 38.2 µM (top of the series) unless noted
Summary of the method: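 Forskolin analogue NKH 477 at EC10 stimulated CRE-driven beta-lactamase in CHO cells alongside compound dilution series. Beta-lactamase was measured with CCF4, excitation 405 nm, emission ratio 460/530 nm.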
Potency is the fitted concentration of half-maximal effect; tags give direction and shape of the fitted curve.

| SMILES | activity change, negative = inhibition | Potency |
| --- | --- | --- |
| CCN1CCN(CCCNC(=O)c2cc3cc4ccc(OC)cc4nc3o2)CC1 | inactive: 19.1% |  |
| O=C(Cc1ccc(S(=O)(=O)N2CCCC2)s1)Nc1nc2c(s1)CCCC2 | inactive: -9.15% |  |
| CCN(CC(=O)NC1CCS(=O)(=O)C1)C(=O)COc1ccccc1-c1ccccc1 (centres undefined) |  | inconclusive: 0.126 µM [falling, single point] |
| O=C(NCc1ccccc1)NC1(C(=O)N2CCOCC2)CCCCC1 | inactive: -8.92% |  |
| CCC(=O)N(Cc1cc2cc(OC)ccc2[nH]c1=O)c1ccc(C)cc1C | inactive: 26.2% |  |
| COc1ccc(C(=O)CSc2nc3nc(C)cc(C)n3n2)cc1OC |  | active: 3.98 µM |
| O=C1c2ccccc2-c2onc3ccc(NCCCn4ccnc4)c1c23 |  | inconclusive: 12.6 µM [rising, partial curve] |
| CCC(=O)Nc1ccc(N2CCN(C(=O)c3ccccc3C)CC2)cc1 | inactive: 7.16% |  |
| N#Cc1ccccc1-c1ccc2ncnc(NCc3cccnc3)c2c1 |  | inconclusive: 1 µM [rising, full curve, poor fit] |
| N#CCCn1c(=O)cnc2cnc(N3CCOCC3)nc21 | inactive: 22.6% |  |
| O=c1[nH]c2ccccc2c2nc3ccccn3c12 |  | active: 10 µM |
| CCc1nc(SCCO)c2oc3ccccc3c2n1 |  | active: 3.98 µM |
| O=C(Nc1ccc(Cc2ccncc2)cc1)c1ccc(Br)o1 |  | inconclusive: 0.02 µM [rising, full curve, poor fit] |
| COc1ccc(C(=O)N2CCC3(CC2)CCN(C(c2ccccc2)c2ccccc2)CC3)cc1 | inactive: -11% |  |
| Cc1nc2cc(NC(=O)NCc3ccco3)ccc2n1C | inactive: 12% |  |
| COc1ccc(-c2cc(C(=O)NCc3cccnc3)no2)cc1 | inconclusive: 2.34% |  |
| CN1CCN(C(=O)CSc2nc(-c3cccs3)cc(-c3cccs3)c2C#N)CC1 | inconclusive: 27.9% |  |
| CC(C)Oc1ccc(C(=O)N(CN2CCCC2=O)c2ccc(F)cc2)cc1 | inconclusive: 0.864% |  |
| O=C(c1cc(Cl)cc(Cl)c1)N1CCOCC1 | inconclusive: -14.6% |  |
| O=C(c1cc(-c2cccs2)on1)N1CCOCC1 | inconclusive: -1.14% |  |
| CCN(CC)C(=O)CSC1=Nc2ccccc2C2=NC(Cc3c[nH]c4ccccc34)C(=O)N12 (centres undefined) |  | inconclusive: 2.51 µM [falling, partial curve] |

| SMILES | activity change, negative = inhibition | Potency |
| --- | --- | --- |
| CCOc1ccc(NCc2nnc(SCC(=O)Nc3cc(C)on3)n2-c2ccc(OC)cc2)cc1 | inactive: -0.408% |  |
| Cc1cc(=O)n2c(-c3ccccc3C)n[nH]c2n1 | inactive: -5.24% |  |
| COc1cc(OC)cc(C(=O)NCC(=O)OC2CCOC2=O)c1 (centres undefined) |  | inconclusive: 3.98 µM [falling, single point] |
| Cc1ccc(NC(=O)NC2(C(=O)NCc3ccco3)CCCCC2)cc1 | inactive: -5.32% |  |
| COc1ccc2nc(S(=O)Cc3ncc(C)c(OC)c3C)[nH]c2c1 (centres undefined) |  | active: 5.01 µM |
| C=CCn1cnc2scc(-c3ccccc3)c2c1=O |  | inconclusive: 12.6 µM [rising, partial curve] |
| CN(Cc1ccco1)c1ncncc1-c1cccc(NS(C)(=O)=O)c1 | inactive: -3.87% |  |
| C=C1CC[C@@H]2[C@](C)(CC[C@@H](O)[C@]2(C)CO)[C@@H]1C/C=C1/C(=O)OC[C@H]1O | inconclusive: -4.37% |  |
| O=c1[nH]c2cc(Cl)c(Cl)cc2[nH]c1=O | inactive: -12.9% |  |
| O=C(CSc1ccc2nnc(-c3ccc(Cl)cc3)n2n1)N1CCN(c2ccccc2)CC1 | inactive: -3.78% |  |
| CCOC(=O)C1CCCc2c1[nH]c1c(C(=O)O)cccc21 (centres undefined) |  | inconclusive: 5.01 µM [rising, partial curve, poor fit] |
| COc1ccc(-c2cnc(N)n2CC2CCCO2)cc1 (centres undefined) | inconclusive: 19.1% |  |
| O=S(=O)(c1cccc(-c2nnco2)c1)N1CCCC1 |  | inconclusive: 5.01 µM [falling, single point] |
| Cc1ccccc1C(=O)c1cccn1CC(=O)NCc1ccco1 | inconclusive: 3.2% |  |
| CCOC(=O)c1sc(NC(=O)c2cccc(S(=O)(=O)N3CCN(C)CC3)c2)cc1C | inactive: 43.1% |  |
| Cc1c(C(=O)N2CCN(c3ccccn3)CC2)oc2ccccc12 |  | inconclusive: 3.16 µM [rising, partial curve] |
| CCOC(=O)C1=C(C)N(C)C(=O)NC1c1ccc(C)s1 (centres undefined) | inconclusive: 15.3% |  |
| O=C(CSc1cccc2cccnc12)NCc1ccco1 | inconclusive: -21.3% |  |
| CN(C)c1ncc2nc(CCc3ccccc3)c(=O)n(Cc3ccc(F)cc3)c2n1 |  | inconclusive: 0.1 µM [rising, full curve, poor fit] |
| CCCN(Cc1ccccc1)C(=O)Nc1ccc2c(c1)nnn2C | inconclusive: 20.4% |  |
| COC(=O)c1sccc1NC(=O)c1csc2c1CCCC2 |  | inconclusive: 7.94 µM [rising, partial curve] |

| SMILES | activity change, negative = inhibition | Potency |
| --- | --- | --- |
| O=C(NC(=O)c1ccc(Cl)cc1)Nc1cc(N2CCCCC2)ncn1 |  | inconclusive: 10 µM [rising, single point] |
| Cc1ccc2c(c1)c1ncnc(N3CCN(c4ccccc4)CC3)c1n2C |  | inconclusive: 7.94 µM [rising, partial curve, poor fit] |
| CCn1c(=O)cc(OCC(=O)NCc2ccco2)c2ccccc21 |  | active: 12.6 µM |
| CCOC(=O)CCCCC(=O)c1[nH]c(=O)[nH]c1CN1CCOCC1 | inactive: 4.21% |  |
| COC(=O)Cn1ncn2c(cc3oc(C)cc32)c1=O | inconclusive: 4.73% |  |
| COc1ccc(CNc2ncnc3ccc(-c4ccc5c(c4)OCO5)cc23)c(OC)c1 |  | inconclusive: 12.6 µM [rising, partial curve] |
| CC(C)Cn1c(CN2CCCCC2C)nc2c1c(=O)n(C)c(=O)n2C (centres undefined) | inactive: -5.82% |  |
| CN(C)Cc1ccccc1-c1ccc2ncnc(N(C)Cc3ccco3)c2c1 |  | inconclusive: 15.8 µM [rising, partial curve] |
| O=C(NCc1ccccc1)c1cc(S(=O)(=O)N2CCOCC2)ccc1F | inconclusive: -18.5% |  |
| C=CCn1c2ccccc2c2nnc(SCc3ccc4nonc4c3)nc21 |  | active: 1.58 µM |
| CCOc1ccc(-n2c(COc3ccccc3)nnc2SCC(N)=O)cc1 | inconclusive: 12.8% |  |
| Cn1c(CCCNC(=O)c2ccccc2)nc2ccccc21 | inconclusive: 24.3% |  |
| CCOC(=O)c1nnn(-c2nonc2N)c1COc1ccccc1 | inactive: -4.35% |  |
| CCOC(=O)c1c(NC(=O)Cn2nnc3ccccc32)sc2c1CCC(C)C2 (centres undefined) |  | inconclusive: 7.94 µM [rising, partial curve] |
| N=C(N)SCc1cccc2c(=O)cc(-c3ccccc3)oc12 | inactive: 15.1% [at 7.6 µM] |  |
| CCOC(=O)CC(=O)CSc1nnc2c(n1)[nH]c1ccccc12 |  | inconclusive: 12.6 µM [rising, single point] |
| C[C@]12CC[C@H]3c4ccc(O)cc4CC[C@@H]3[C@H]1CC[C@@H]2OC(=O)CCC1CCCC1 | inactive: 2.15% [at 7.6 µM] |  |
| COC(=O)c1cc(Br)c(=O)n(Cc2ccc(OC)c(OC)c2)c1 |  | inconclusive: 12.6 µM [rising, single point] |
| CCOC(=O)c1cnc(-n2nc(C)cc2C)nc1Nc1ccc2c(c1)OCO2 | inactive: -1.98% |  |
| c1ccc(Cn2c(-c3ccco3)nc3nc4ccccc4nc32)cc1 |  | active: 12.6 µM |
| CS(=O)(=O)N1CCCC(C(=O)NCCCN2CCN(Cc3ccccc3)CC2)C1 (centres undefined) | inconclusive: -9.26% |  |

| SMILES | activity change, negative = inhibition | Potency |
| --- | --- | --- |
| CCOC(=O)c1ccc(NC(=O)c2nccnc2C(=O)O)cc1 | inactive: -9.27% |  |
| CCOC(=O)COc1cc2c(C(=O)OCC)c(C)oc2cc1Br | inactive: 20.7% |  |
| COC(=O)c1ccc(NC(=O)Nc2ccc(F)cc2)cc1 |  | inconclusive: 5.01 µM [falling, single point] |
| CCOc1cc(S(=O)(=O)N2CCOCC2)ccc1F |  | inconclusive: 12.6 µM [falling, single point] |
| COc1cccc(Nc2nnc(SCn3nnc4ccccc4c3=O)s2)c1 | inconclusive: 19.4% |  |
| CN(C)c1ncc2ncc(=O)n(CCc3ccccc3)c2n1 |  | inconclusive: 15.8 µM [rising, single point] |
| Cc1ccc(-c2nc3cc(C)ccc3o2)cc1 | inactive: 1.64% |  |
| COc1ccc(CNc2nc(-c3ccccc3OC)nc3ccccc23)c(OC)c1 |  | active: 10 µM |
| COC(=O)c1ccccc1NC(=O)C1CC(c2ccc(F)cc2)=NO1 (centres undefined) |  | inconclusive: 10 µM [rising, partial curve] |
| COc1cccc(Nc2ncc3nc(CCc4ccccc4)c(=O)n(CCC#N)c3n2)c1 |  | inconclusive: 10 µM [falling, single point] |
| COc1ccc2[nH]cc(CCNc3ncncc3-c3cccc(NS(C)(=O)=O)c3)c2c1 | inactive: 21.5% |  |
| CC(c1ccccc1)C1C(C#N)=C(N)SC(N)=C1C#N (centres undefined) | inactive: -5.88% |  |
| C1CCC2OC2C1 (centres undefined) | inactive: -9.24% |  |
| COc1ccc(C(C)=O)cc1CN1C(=O)C(C)N(c2ccc(C)cc2)C1=O (centres undefined) |  | inconclusive: 5.01 µM [falling, single point] |
| Cn1c(=O)n(Cc2ccc(F)cc2)c(=O)c2c1nc1n2CCCN1C1CCCCC1 |  | active: 10 µM |
| COc1ccccc1-c1cc(NCc2ccccc2)ncn1 |  | inconclusive: 3.16 µM [rising, single point] |
| O=C(O)c1cc([N+](=O)[O-])ccc1NCCCc1ccccc1 | inconclusive: -11.7% |  |
| CCC1CCCCN1CCCNC(=O)c1cn(CC(C)C)c(=O)c2cc(OC)c(OC)cc12 (centres undefined) | inconclusive: 21.9% |  |
| COC(=O)c1ccc(CSc2nc3c(cnn3-c3ccc(F)cc3)c(=O)[nH]2)o1 |  | active: 12.6 µM |
| O=c1c2cccnc2[nH]c(=S)n1CCCN1CCN(c2ccccc2F)CC1 | inconclusive: -14.2% |  |
| O=C(Nc1cnn(C23CC4CC(CC(C4)C2)C3)c1)c1cnn2c(C(F)(F)F)cc(-c3ccco3)nc12 | inactive: 9.37% |  |

From PubChem BioAssay AID662 (National Center for Advancing Translational Sciences (NCATS), 2007)
